Assay results as given in paper PMC9911399, “Two distinct binding modes provide the RNA-binding protein RbFox with extraordinary sequence specificity”.
Where a chain is given by its changes, count along the chain named. Some of the results follow.

T1: RBFOX1 RRM (Homo sapiens, UniProt Q9NWB1 109-208)
T1 sequence: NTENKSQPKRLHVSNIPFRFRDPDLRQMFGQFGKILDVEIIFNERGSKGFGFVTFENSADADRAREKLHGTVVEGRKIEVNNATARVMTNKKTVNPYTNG

B1: CUCUGUU (DNA:RNA)
RNA: GGGAGACCGGAAUUCAGAUUGUCCCUCUGUUUUAAAUCCCGUCGUAGCCACCA
DNA 1: CAATCTGAATTCCGGTCTCCC
DNA 2: TGGTGGCTACGACGGGATT
B2: GUUCGUG (DNA:RNA)
RNA: B1 RNA with C25G, C27U, U28C, U31G
DNA 1: CAATCTGAATTCCGGTCTCCC
DNA 2: TGGTGGCTACGACGGGATT
B3: AUGUAAG (DNA:RNA)
RNA: B1 RNA with C25A, C27G, G29A, U30A, U31G
DNA 1: CAATCTGAATTCCGGTCTCCC
DNA 2: TGGTGGCTACGACGGGATT
B4: CCAGUCC (DNA:RNA)
RNA: B1 RNA with U26C, C27A, U28G, G29U, U30C, U31C
DNA 1: CAATCTGAATTCCGGTCTCCC
DNA 2: TGGTGGCTACGACGGGATT
B5: UGGUCCG (DNA:RNA)
RNA: B1 RNA with C25U, U26G, C27G, G29C, U30C, U31G
DNA 1: CAATCTGAATTCCGGTCTCCC
DNA 2: TGGTGGCTACGACGGGATT
B6: GGUUGAG (DNA:RNA)
RNA: B1 RNA with C25G, U26G, C27U, U30A, U31G
DNA 1: CAATCTGAATTCCGGTCTCCC
DNA 2: TGGTGGCTACGACGGGATT
B7: CAGAGGC (DNA:RNA)
RNA: B1 RNA with U26A, C27G, U28A, U30G, U31C
DNA 1: CAATCTGAATTCCGGTCTCCC
DNA 2: TGGTGGCTACGACGGGATT
B8: CUUUGGA (DNA:RNA)
RNA: B1 RNA with C27U, U30G, U31A
DNA 1: CAATCTGAATTCCGGTCTCCC
DNA 2: TGGTGGCTACGACGGGATT
B9: AACUUUC (DNA:RNA)
RNA: B1 RNA with C25A, U26A, G29U, U31C
DNA 1: CAATCTGAATTCCGGTCTCCC
DNA 2: TGGTGGCTACGACGGGATT
B10: CAUGAUC (DNA:RNA)
RNA: B1 RNA with U26A, C27U, U28G, G29A, U31C
DNA 1: CAATCTGAATTCCGGTCTCCC
DNA 2: TGGTGGCTACGACGGGATT
B11: UACUGUG (DNA:RNA)
RNA: B1 RNA with C25U, U26A, U31G
DNA 1: CAATCTGAATTCCGGTCTCCC
DNA 2: TGGTGGCTACGACGGGATT
B12: AAUCCCU (DNA:RNA)
RNA: B1 RNA with C25A, U26A, C27U, U28C, G29C, U30C
DNA 1: CAATCTGAATTCCGGTCTCCC
DNA 2: TGGTGGCTACGACGGGATT
B13: CGUGCAG (DNA:RNA)
RNA: B1 RNA with U26G, C27U, U28G, G29C, U30A, U31G
DNA 1: CAATCTGAATTCCGGTCTCCC
DNA 2: TGGTGGCTACGACGGGATT
B14: ACUUUAC (DNA:RNA)
RNA: B1 RNA with C25A, U26C, C27U, G29U, U30A, U31C
DNA 1: CAATCTGAATTCCGGTCTCCC
DNA 2: TGGTGGCTACGACGGGATT
B15: UGGAAGC (DNA:RNA)
RNA: GGGAGACCGGAAUUCAGAUUGUCCUGGAAGCUUAAAUCCCGUCGUAGCCACCA
DNA 1: CAATCTGAATTCCGGTCTCCC
DNA 2: TGGTGGCTACGACGGGATT
B16: CGCGGUU (DNA:RNA)
RNA: B1 RNA with U26G, U28G
DNA 1: CAATCTGAATTCCGGTCTCCC
DNA 2: TGGTGGCTACGACGGGATT
B17: AGAAAUA (DNA:RNA)
RNA: B15 RNA with U25A, G27A, G30U, C31A
DNA 1: CAATCTGAATTCCGGTCTCCC
DNA 2: TGGTGGCTACGACGGGATT
B18: UUCAGAG (DNA:RNA)
RNA: B1 RNA with C25U, U28A, U30A, U31G
DNA 1: CAATCTGAATTCCGGTCTCCC
DNA 2: TGGTGGCTACGACGGGATT
B19: AGCGCGU (DNA:RNA)
RNA: B1 RNA with C25A, U26G, U28G, G29C, U30G
DNA 1: CAATCTGAATTCCGGTCTCCC
DNA 2: TGGTGGCTACGACGGGATT
B20: GCCCGCA (DNA:RNA)
RNA: B1 RNA with C25G, U26C, U28C, U30C, U31A
DNA 1: CAATCTGAATTCCGGTCTCCC
DNA 2: TGGTGGCTACGACGGGATT
B21: ACGUUCG (DNA:RNA)
RNA: B1 RNA with C25A, U26C, C27G, G29U, U30C, U31G
DNA 1: CAATCTGAATTCCGGTCTCCC
DNA 2: TGGTGGCTACGACGGGATT
B22: CUUCAGA (DNA:RNA)
RNA: B1 RNA with C27U, U28C, G29A, U30G, U31A
DNA 1: CAATCTGAATTCCGGTCTCCC
DNA 2: TGGTGGCTACGACGGGATT
B23: ACACUAG (DNA:RNA)
RNA: GGGAGACCGGAAUUCAGAUUGUCCACACUAGUUAAAUCCCGUCGUAGCCACCA
DNA 1: CAATCTGAATTCCGGTCTCCC
DNA 2: TGGTGGCTACGACGGGATT
B24: GUGGUAC (DNA:RNA)
RNA: B23 RNA with A25G, C26U, A27G, C28G, G31C
DNA 1: CAATCTGAATTCCGGTCTCCC
DNA 2: TGGTGGCTACGACGGGATT
B25: UUGCUGC (DNA:RNA)
RNA: B15 RNA with G26U, A28C, A29U
DNA 1: CAATCTGAATTCCGGTCTCCC
DNA 2: TGGTGGCTACGACGGGATT
B26: GCAUAGA (DNA:RNA)
RNA: B23 RNA with A25G, C28U, U29A, A30G, G31A
DNA 1: CAATCTGAATTCCGGTCTCCC
DNA 2: TGGTGGCTACGACGGGATT
B27: GGCACGA (DNA:RNA)
RNA: B15 RNA with U25G, G27C, A29C, C31A
DNA 1: CAATCTGAATTCCGGTCTCCC
DNA 2: TGGTGGCTACGACGGGATT
B28: GCCACAU (DNA:RNA)
RNA: B23 RNA with A25G, A27C, C28A, U29C, G31U
DNA 1: CAATCTGAATTCCGGTCTCCC
DNA 2: TGGTGGCTACGACGGGATT
B29: AUACGUC (DNA:RNA)
RNA: B23 RNA with C26U, U29G, A30U, G31C
DNA 1: CAATCTGAATTCCGGTCTCCC
DNA 2: TGGTGGCTACGACGGGATT
B30: GCUGCCG (DNA:RNA)
RNA: B23 RNA with A25G, A27U, C28G, U29C, A30C
DNA 1: CAATCTGAATTCCGGTCTCCC
DNA 2: TGGTGGCTACGACGGGATT
B31: GACAGAA (DNA:RNA)
RNA: B1 RNA with C25G, U26A, U28A, U30A, U31A
DNA 1: CAATCTGAATTCCGGTCTCCC
DNA 2: TGGTGGCTACGACGGGATT

biological target: T1, RBFOX1 RRM; assay: EMSA; HiTS-Eq, 1 nM pool, 10 min; buffer printed only for the single-RNA assays: 10 mM Tris pH 7.5, 150 mM NaCl, 3.4 mM EDTA, 0.001% NP-40, 30 C; settings: tags: His6 N-terminal (pET28a); label: 5' 32P
Procedure, shortened: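 Purified RbFox RRM (wild type or mutant) was equilibrated for 10 min in 50 µL with 1 nM of a 5′-radiolabelled pool of RNA with 7 randomized nucleotides, its flanks annealed to DNA oligonucleotides, across increasing protein concentrations. Free RNA was separated by 8% native PAGE, excised, reverse-transcribed, PCR-barcoded and sequenced on an Illumina HiSeq 2500. Relative association constants came from read-count changes of each variant against the control reaction, normalised to the cognate motif.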

Binder | binding signal
B1 | 0.0147 KA relative to UGCAUGU
B2 | 0.0268 KA relative to UGCAUGU
B3 | 0.0148 KA relative to UGCAUGU
B4 | 0.00513 KA relative to UGCAUGU
B5 | 0.017 KA relative to UGCAUGU
B6 | 0.0204 KA relative to UGCAUGU
B7 | 0.00841 KA relative to UGCAUGU
B8 | 0.00778 KA relative to UGCAUGU
B9 | 0.00552 KA relative to UGCAUGU
B10 | 0.00846 KA relative to UGCAUGU
B11 | 0.0225 KA relative to UGCAUGU
B12 | 0.000403 KA relative to UGCAUGU
B13 | 0.0123 KA relative to UGCAUGU
B14 | 0.00258 KA relative to UGCAUGU
B15 | 0.0215 KA relative to UGCAUGU
B16 | 0.0152 KA relative to UGCAUGU

Binder | binding signal
B17 | 0.00119 KA relative to UGCAUGU
B18 | 0.013 KA relative to UGCAUGU
B19 | 0.0153 KA relative to UGCAUGU
B20 | 0.0133 KA relative to UGCAUGU
B21 | 0.0141 KA relative to UGCAUGU
B22 | 0.00958 KA relative to UGCAUGU
B23 | 0.00182 KA relative to UGCAUGU
B24 | 0.0175 KA relative to UGCAUGU
B25 | 0.0167 KA relative to UGCAUGU
B26 | 0.0137 KA relative to UGCAUGU
B27 | 0.0261 KA relative to UGCAUGU
B28 | 0.00688 KA relative to UGCAUGU
B29 | 0.00422 KA relative to UGCAUGU
B30 | 0.0204 KA relative to UGCAUGU
B31 | 0.00874 KA relative to UGCAUGU
